Measurements reported in PubChem BioAssay AID1466 (National Center for Advancing Translational Sciences (NCATS), 2008).
Hit rate of the full screen: of about 200,000 compounds, about 10 (0.005%) were called active. Inconclusive means that the source gave no clear call. Such entries were picked first, then a sample of the others. The call rests on the fitted dose curve; in most records, active means well fitted inhibition curve with a large enough effect; inconclusive means small, poorly fitted or top-dose-only effect, or effect the other way, or another doubt; inactive means no such curve, though single readings can be large or run the other way. Potencies of inconclusive entries are left out as doubtful fits.

Molecular target: Lysosomal alpha-glucosidase (Homo sapiens) (UniProt P10253)
Assay: qHTS Assay for Inhibitors of Human alpha-Glucosidase as a Potential Chaperone Treatment of Pompe Disease;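 on activity change, negative = inhibition: plate controls were uninhibited enzyme wells for no effect and no-enzyme background for full effect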
Conditions: purified human GAA, 4-MU-alpha-glucoside fluorescence; activity change, negative = inhibition: at 76.9 µM (top of the series) unless noted
Outline: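 Activity normalized between no-enzyme (basal) and enzyme-only wells. Conditions: 4 nM human enzyme, 400 uM fluorogenic substrate, citrate/phosphate pH 5.0 with Tween-20, 20 min room temperature, compounds up to 77 uM.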
Potency means the concentration at half of the fitted maximal effect; tags describe the fitted curve by direction and shape.

| SMILES | activity change, negative = inhibition | Potency |
| --- | --- | --- |
| Cc1cc(-c2nnc(SCc3ccccn3)o2)no1 | inconclusive: 15.4% [activator] | – |
| Nc1nccnc1C(=O)OCC(=O)Nc1cccc(S(=O)(=O)N2CCCCC2)c1 | – | inconclusive [activator, partial curve] |
| Cc1ccc(/C(O)=C2\C(=O)C(=O)N(c3cc(C)on3)C2c2cccc(Cl)c2)cc1 (stereo not drawn) | – | inconclusive [inhibitor, single point] |
| O=C(N=Nc1c(O)n(C2OC(=O)c3ccccc32)c2ccccc12)c1ccco1 (stereo not drawn) | inconclusive: -18.4% [inhibitor] | – |
| Cc1ccc2[nH]c(=O)c(CN(Cc3cccs3)C(=S)NCC3CCCO3)cc2c1 (stereo not drawn) | – | inconclusive [inhibitor, partial curve] |
| O=C(NNS(=O)(=O)c1ccccc1C(F)(F)F)c1cc2ncc(C(F)(F)F)cc2s1 | – | inactive |
| COc1cc(-c2nc(CN3CCN(CC(C)C)C(=O)[C@@H]3C)c(C)o2)ccc1F | – | inconclusive [activator, full curve, poor fit] |
| O=C(NCCOc1ccccc1-c1ccccc1)c1ccco1 | inconclusive: 13.9% [activator] | – |
| O=C(CN1CCCCC1)Nc1ccc(S(=O)(=O)N2CCCCCC2)cc1 | inconclusive: -15.9% [inhibitor] | – |
| COc1cc(OC)c(OC)cc1/C=N/Nc1ncnc2c1[nH]c1ccccc12 | – | inconclusive [activator, partial curve] |
| O=C(c1ccccn1)N1N=C2/C(=C/c3ccccc3)CCCC2C1c1ccccc1 (stereo not drawn) | inconclusive: -15% [inhibitor] | – |
| COc1ccccc1C(=O)Nc1ccc(NC(=O)c2ccco2)c(C)c1 | – | inconclusive [inhibitor, single point] |
| Cc1nc2cc(C)c(C)cc2s1 | – | inconclusive [inhibitor, single point] |
| CN1CCc2c(sc(N)c2C(N)=O)C1 | – | inactive |
| COc1ccc(NC(=O)C2CCCN(c3nc(C)cc(C)n3)C2)cc1 (stereo not drawn) | inconclusive: 13.8% [activator] | – |
| COc1cc(OC)c(OC)cc1/C=N/NC(=O)c1cccc(S(=O)(=O)N2CCOCC2)c1 | – | inconclusive [inhibitor, full curve] |
| CN(C)S(=O)(=O)c1ccc(Cl)c(NC(=O)CSc2nc3c(cc2C#N)C(=O)CC(C)(C)C3)c1 | – | inconclusive [inhibitor, single point] |
| COc1ccc(OC)c(NC(=O)C2CCN(Cc3cnn(-c4ccccc4)c3-n3cccc3)CC2)c1 | – | inconclusive [inhibitor, single point] |
| Cc1cc(O)c(/C=N/Nc2ccccc2Cl)c(=O)o1 | – | inactive |
| CC(=O)Oc1ccc(C2C3=C(CC(C)(C)CC3=O)Nc3cc4c(cc32)OCCO4)cc1 (stereo not drawn) | – | inconclusive [activator, single point] |
| Cn1c(Cn2nnc(-c3ccccc3)n2)nnc1SCc1ccccc1Cl | – | inconclusive [inhibitor, partial curve, poor fit] |
| COc1ccc(C)cc1NC(=O)CN(C)S(=O)(=O)c1cc(C)ccc1OC | inconclusive: -15% [inhibitor] | – |

| SMILES | activity change, negative = inhibition | Potency |
| --- | --- | --- |
| CCSc1nnc(NC(=O)CSc2nnc(CNC(=O)c3ccccc3F)o2)s1 | inconclusive: 15.1% [activator] | – |
| CC1CCCCN1Cc1nc2c(c(=O)n(C)c(=O)n2C)n1CCc1ccccc1 (stereo not drawn) | – | inconclusive [inhibitor, single point] |
| CCOc1ccc(CC(=O)NCc2cn3c(C)csc3n2)cc1 | – | inconclusive [inhibitor, single point] |
| Nc1nnc(Cc2ccccc2)s1 | inconclusive: -15.4% [inhibitor] | – |
| CCOC(=O)Nc1ccc2c(CN3C(=O)NC4(CCCC4)C3=O)cc(=O)oc2c1 | – | inconclusive [activator, partial curve, poor fit] |
| CC(C)CNC(=O)c1ccccc1NC(=O)CN(c1ccc2c(c1)OCCO2)S(C)(=O)=O | – | inconclusive [inhibitor, single point] |
| Cc1cc(NS(=O)(=O)c2ccc(NC(=O)CCN3C(=O)c4ccccc4C3=O)cc2)no1 | – | inconclusive [inhibitor, single point] |
| Nc1cc(C(F)(F)F)ccc1Nc1ccccc1 | – | inconclusive [inhibitor, partial curve, poor fit] |
| CCOc1ccccc1NC(=O)CCS(=O)(=O)c1ccc(OC)cc1 | – | inconclusive [inhibitor, single point] |
| O=C(O)CCC(=O)CCC(=O)c1ccccc1 | – | inconclusive [inhibitor, single point] |
| FC(F)Oc1ccccc1/C=N/n1cnc2ccccc21 | – | inconclusive [inhibitor, single point] |
| COc1ccc(N2CCN(C(c3cc(OC)ccc3OC)c3nnnn3Cc3ccco3)CC2)cc1 (stereo not drawn) | inconclusive: -15.7% [inhibitor] | – |
| Cc1ccc(NC(=O)CCSCCC(=O)Nc2ccc(C)c(C)c2)cc1C | – | inconclusive [inhibitor, single point] |
| CCCCN1C(=O)/C(=C2\SC(N3CCCCC3)=NC2=O)c2ccccc21 | – | inconclusive [inhibitor, partial curve, poor fit] |
| Nc1ccccc1Sc1cc(Cl)nnc1Cl | – | inactive |
| COc1ccccc1-c1nc(C#N)c(N2CCCCCC2)o1 | – | inconclusive [activator, partial curve] |
| Fc1ccc(CSc2ncnc3ccccc23)cc1 | – | inactive |
| N#Cc1c(/N=C/C=C/c2ccccc2)sc2c1CCCC2 | – | inactive |
| CCC(C)(c1nnnn1-c1c(C)cccc1C)N(N=O)c1ccccc1Cl (stereo not drawn) | – | inconclusive [inhibitor, partial curve] |
| COc1ccc(S(=O)(=O)N2CCCC(C(F)(F)F)C2)cc1 (stereo not drawn) | – | inconclusive [inhibitor, single point] |
| CCNc1oc(-c2cccc3ccccc23)nc1C#N | – | inconclusive [activator, partial curve] |
